Experimental data reported in PubChem BioAssay AID504832 (National Center for Advancing Translational Sciences (NCATS), 2011).
Hit rate of the full screen: of about 310,000 compounds, about 18,000 (5.8%) were called active. The inconclusive results got no clear call from the source; some entries with a clear call stand among them for comparison. Calls come from the whole dose curve; as a rule, active = well fitted inhibition curve with a large enough effect; inconclusive = small, poorly fitted or top-dose-only effect, or another doubt; inactive = no such curve, though single readings can be large or run the other way. Potencies of inconclusive entries are left out as doubtful fits.

assay: Primary qHTS for delayed death inhibitors of the malarial parasite plastid, 48 hour incubation; details: P. falciparum luciferase growth in erythrocytes; series mostly up to 28.7 µM
In short: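 Compounds are pin-transferred into medium, infected erythrocytes (2% hematocrit, 0.1% parasitemia final) are added, and plates sit one parasite generation at 37 C in 5% CO2. Detection reagent is then added and luminescence measured.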
Potency is the fitted concentration of half-maximal effect; tags give direction and shape of the fitted curve.

SMILES | Potency
COC(=O)C1=C(C)N(c2ccc(OC)c(OC)c2)C(=O)/C1=C\c1ccco1 | inconclusive [inhibitor, single point]
CCc1cc2c(=O)c(-c3nc4ccccc4n3C)coc2c(CN2CCOCC2)c1O | inactive
CCC(C)NC(=O)CSc1ccc(S(=O)(=O)N2CCN(Cc3ccccc3)CC2)cn1 (centres undefined) | inconclusive [inhibitor, partial curve]
COc1cc(O)c(C(CCN2CCCC2)c2ccc(N(C)C)cc2)c(OC)c1 (centres undefined) | active: 2.94 µM
O=C(/C=C/c1ccc2c(c1)OCO2)NCC1CCCO1 (centres undefined) | inactive
Cc1onc(-c2ccccc2)c1C(=O)OCC(=O)N(CC(C)C)c1c(N)n(Cc2ccccc2)c(=O)[nH]c1=O | active: 13.1 µM
COc1ccc(C(C(=O)NC(C)(C)C)N(Cc2cccs2)C(=O)CCC(=O)Nc2cc(C)on2)cc1 (centres undefined) | inconclusive [inhibitor, single point]
O=P(O)(c1ccc(Cl)cc1)c1ccc(Cl)cc1 | inconclusive [inhibitor, full curve, poor fit]
Cc1ccc(C)c(NC(=O)c2nnn(Cc3ccccc3C)c2N)c1 | inconclusive [inhibitor, partial curve]
Cc1cc(NC(=O)CSc2nc(-c3cccs3)nc3ccccc23)no1 | inconclusive [inhibitor, single point]
O=C(NC(=S)Nc1cccc(Cl)c1N1CCCCC1)c1cccs1 | inconclusive [inhibitor, partial curve, poor fit]
Cc1nc(CN2CCN(C(=O)NC3(c4ccccc4)CC3)CC2)cs1 | inactive
C=CCN1C(=O)C(CC(=O)O)SC1=Nc1ccc(C)cc1 (centres undefined) | inactive
Cc1cccc([C@@H]2[C@@H]3C(=O)N(Cc4ccccc4)C(=O)[C@@H]3[C@]3(CC(C)C)C(=O)N(c4cccc(Br)c4)C(=O)N23)c1 | inconclusive [inhibitor, full curve, poor fit]
Cc1c(C(=O)Nc2nc3ccccc3[nH]2)oc2c(Cl)cccc12 | inconclusive [inhibitor, single point]
CC(C)CCn1c(O)c(N=Nc2ccccn2)c2ccccc21 | inconclusive [inhibitor, single point]
CCC(=O)N1N=C(c2c(O)n(CCc3ccccc3)c(=O)[nH]c2=O)CC1c1ccc(OC)c(OC)c1 (centres undefined) | inconclusive [inhibitor, full curve]
Cn1c(=O)c(C(=O)COC(=O)c2cc(-c3ccccc3)nc3ccccc23)c(N)n(Cc2ccccc2)c1=O | inconclusive [inhibitor, full curve, poor fit]
Cn1ccc(C(=O)N/N=C/c2cccnc2)n1 | inactive
Cc1cc(NC(=O)C2CC(c3ccc(Cl)cc3)=NO2)no1 (centres undefined) | inactive
O=C(COC(=O)CCCN1C(=O)c2cccc3cccc(c23)C1=O)NC1CCS(=O)(=O)C1 (centres undefined) | inconclusive [inhibitor, single point]
COc1ccc(COC(=O)c2ccc(Br)c(S(=O)(=O)N3CCOCC3)c2)cc1F | active: 3.29 µM
COc1ccc2ccc(O)c(CN3CCN(S(=O)(=O)c4cc([N+](=O)[O-])ccc4C)CC3)c2c1 | inconclusive [inhibitor, single point]

SMILES | Potency
CCOC(=O)N1CCN(c2nc3ccc(C(=O)c4ccccc4)cc3n3cnnc23)CC1 | inconclusive [inhibitor, partial curve]
COc1ccc(OC)c(/C=C/C(=O)Nc2cccc(S(=O)(=O)N3CCCC3)c2)c1 | inconclusive [inhibitor, single point]
CCOCCCNS(=O)(=O)c1ccc(NC(=O)N2c3ccccc3Sc3ccccc32)cc1 | inconclusive [inhibitor, single point]
COc1ccccc1NC(c1cccnc1)c1ccc2cccnc2c1O (centres undefined) | inconclusive [inhibitor, single point]
O=C(N/N=C/c1ccco1)c1ccncc1 | inactive
CC(C)(C)CN1CCC(Oc2cccc(C(=O)NCCCOc3cccnc3)c2)CC1 | inconclusive [inhibitor, single point]
CCn1cc(C(=O)N2CCc3ccccc32)c(=O)c2cc(S(=O)(=O)N3CC(C)CC(C)C3)ccc21 (centres undefined) | inconclusive [inhibitor, partial curve, poor fit]
O=C1/C(=C/c2cccs2)COc2ccccc21 | inactive
[O-]/C(=C(\C(=S)Nc1cccc2ccccc12)[n+]1ccccc1)c1ccc(Cl)s1 | inconclusive [inhibitor, partial curve, poor fit]
Cc1ccc(C)c(OCCC(=O)Nc2cccc(S(=O)(=O)N3CCCCC3)c2)c1 | active: 11.7 µM
CCOC(=O)N/N=C/c1ccccc1OCc1ccc(Cl)cc1 | active: 2.94 µM
O=C(Cc1cccc(NC(=O)C2CCCN(C(=O)C3CC3)C2)c1)Nc1cccc(C(=O)N2CCCC2)c1 (centres undefined) | inconclusive [inhibitor, single point]
COc1ccc(/C=C2/SC(=S)N(CCCC(=O)Nc3ccc(O)cc3)C2=O)cc1 | inconclusive [inhibitor, partial curve]
CC(/C=C/c1ccccc1)=N/O | inactive
Cc1ccc(N2CCN(C(=O)C3CCCN(c4ncnc5c4nc4n5CCCCC4)C3)CC2)c(C)c1 (centres undefined) | inconclusive [inhibitor, full curve, poor fit]
C=CCSc1nnc(N2C(=O)C(O)=C(C(=O)c3ccco3)C2c2ccc(F)cc2)s1 (centres undefined) | inconclusive [inhibitor, single point]
CCOCCCNC(=O)c1ccc2c(=O)n(Cc3ccc(OC)cc3)c(=O)[nH]c2c1 | active: 5.86 µM
CCCCN(C)C(=O)c1nc2ccccn2c1CNCCCn1nnc2ccccc21 | inconclusive [inhibitor, single point]
CC(C)c1nnc(NC(=O)C2CCN(C(=O)Nc3ccc(Cl)cc3)CC2)s1 | inconclusive [inhibitor, single point]
COc1ccc(-c2nn(-c3ccccc3)cc2/C=N/Nc2ccccn2)cc1 | inconclusive [inhibitor, full curve]
CC(=O)c1cccc(NC(=O)CN2CCN(S(=O)(=O)/C=C/c3ccccc3)CC2)c1 | inconclusive [inhibitor, single point]
COc1ccc(NC(=O)Cn2c(=O)n(-c3ccc(CC(=O)NCc4ccco4)cc3)c(=O)c3ccccc32)cc1 | inactive
COc1ccc(CNC(=O)c2ccc(C)o2)cc1 | inactive

SMILES | Potency
COCCNc1ncnc2c1cnn2Cc1ccc(Cl)cc1 | inconclusive [inhibitor, partial curve]
O=C(c1ccc([N+](=O)[O-])s1)N1CCN(c2ccccc2)CC1 | inactive
Cc1cccn2c(=O)c3cc(C(=O)NC4CCCC4)c(=N)n(C4CCCC4)c3nc12 | inconclusive [inhibitor, partial curve]
CCOC(=O)Cn1c(=O)oc2cc(S(=O)(=O)N3CCCC(C)C3)ccc21 (centres undefined) | inactive
Cc1nnc(-c2cccc(Br)c2)c2cn(-c3cccc(Br)c3)nc12 | inconclusive [inhibitor, partial curve, poor fit]
COC(=O)c1ccc(CN2CCCC(C(=O)Nc3cccc(-n4cnnn4)c3)C2)cc1 (centres undefined) | inconclusive [inhibitor, partial curve, poor fit]
O=C(NNC(=O)C1CCN(S(=O)(=O)c2cccc(Cl)c2)CC1)C1CC1 | inconclusive [inhibitor, single point]
Cc1ccc(S(=O)(=O)N2CCOCC2)cc1NC(=O)CNc1ccccc1N1CCCC1=O | active: 9.28 µM
O=C(NC1=NCCS1)c1ccncc1 | inactive
CCCNC(=O)CN1C(=O)NC(Cc2c[nH]c3ccccc23)C1=O (centres undefined) | inactive
COc1ccccc1OCCn1cc(/C=N/NC(N)=S)c2ccccc21 | inconclusive [inhibitor, single point]
COc1ccc(NC(c2ccccc2)P(=O)(Oc2ccccc2)Oc2ccccc2)cc1 (centres undefined) | inactive
Cc1ccc(S(=O)(=O)N2CCN(C(=S)NCc3ccc4c(c3)OCO4)CC2)cc1 | active: 1.85 µM
Cc1sc2nc(C(C)C)nc(SCC(=O)N3CCOCC3)c2c1C | inactive
O=C(Cc1ccccc1)N1CCN(Cc2c[nH]c3ccccc23)CC1 | inconclusive [inhibitor, single point]
O=C(N/N=C/c1ccc(N2CCCCC2)o1)C(O)(c1ccccc1)c1ccccc1 | active: 13.1 µM
COc1ccc2c(c1)C(c1ccc(C)o1)=NNC(c1ccccc1)=N2 | inconclusive [inhibitor, single point]
C=CCn1c(-c2sc3nc(C)cc(C)c3c2N)n[nH]c1=S | inactive
CCCN(CC1CC1)C(=O)CCc1nnc(CCc2c[nH]c3ccccc23)o1 | inconclusive [inhibitor, full curve, poor fit]
COc1ccc(C(=O)OC(C)C(=O)NC2CCCC2)cc1S(=O)(=O)N1CCOCC1 (centres undefined) | inconclusive [inhibitor, single point]
CCOc1ccc(-c2n[nH]c(C)c2-c2ccccc2OC)c(O)c1 | active: 3.29 µM
CN(Cc1c(F)cccc1Cl)S(=O)(=O)c1cccs1 | inactive
COC(=O)CCC(=O)OC1(C)C(=O)C=C2C=C(C3CC3)N(Cc3ccco3)C=C2C1=O (centres undefined) | active: 11.7 µM
